Data taken from PubChem BioAssay AID1745845 (National Center for Advancing Translational Sciences (NCATS), 2022).
The whole screen tested about 360,000 compounds, of which about 2,600 (0.72%) were called active. This list was built around the results that the source calls inconclusive (neither active nor inactive); the mix of calls is not that of the screen. Calls come from the whole dose curve; as a rule, active = well fitted inhibition curve with a large enough effect; inconclusive = small, poorly fitted or top-dose-only effect; inactive = no such curve, though single readings can be large or run the other way. Potencies beside an inconclusive call are fits to weak or partial responses and may not hold up.

experiment: Primary qHTS for Inhibitors of ATXN expression; conditions: HEK-293 ATXN2-luciferase reporter, luminescence, 24 h; series mostly up to 57 µM; note: nearly all actives have a fitted effect of over 55% in size
How it was run: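 ATXN2-luciferase reporter cells (luciferase flanked by upstream and downstream ATXN2 gene portions) were treated 24 h at 37 °C with compounds at up to 57 uM. SteadyGlo luminescence gave expression; GF-AFC fluorescence gave viability.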
Potency is the fitted concentration of half-maximal effect; tags give direction and shape of the fitted curve.

Potency, inconclusive:
COc1ccccc1CCNCc1ccc(OC)c(OCc2ccccc2)c1 35.5 µM [inhibitor, single point]
CCCCCCCCN1C(=O)[C@H](CC(=O)NCCCOCCCC)C[C@@]2(C(=O)OC)CCCCC=C12 31.6 µM [inhibitor, single point]
CCNC(=O)C1(C)CCCN(Cc2ccc3ccccc3c2Br)C1 (stereo not drawn) 22.4 µM [inhibitor, single point]
CC(C)(C)NC(=O)CCN(/N=C/c1ccc([N+](=O)[O-])o1)C1=NS(=O)(=O)c2ccccc21 39.8 µM [inhibitor, single point]
CCCc1nc2c(C)cc(Br)cn2c1Cc1ccc(C)cc1 39.8 µM [inhibitor, single point]
CCOc1ccc(/C=C/C(O)=C2/C(=O)N(C)C3(C)CC2c2ccccc2O3)cc1OC (stereo not drawn) 35.5 µM [inhibitor, single point]
Cc1ccc(-c2n[nH]c3c2C(c2ccccc2Cl)N(c2ccc(C(=O)O)cc2)C3=O)cc1 (stereo not drawn) 39.8 µM [inhibitor, single point]
O=C(CN1C(=O)CC(c2ccco2)Sc2ccccc21)Nc1cccc(C(F)(F)F)c1 (stereo not drawn) 39.8 µM [inhibitor, single point]
C/C(=N\Nc1nc2ccccc2[nH]1)c1ccc(Cl)s1 37.7 µM [inhibitor, single point]
O=C(Nc1nc2ccccc2[nH]1)c1ccccc1OC(F)F 17.8 µM [inhibitor, single point]
COc1cc(NS(=O)(=O)c2ccc(N/C=C(\C#N)c3nc4cc(Cl)ccc4o3)cc2)nc(OC)n1 14.1 µM [inhibitor, partial curve, poor fit]
OCCCN=c1cc(-c2ccccc2)oc2ccc(Cl)cc12 20 µM [inhibitor, partial curve, poor fit]
CC(C)(C)c1ccc(OCC(=O)NNC(=S)NC(=O)c2ccco2)c(Br)c1 31.6 µM [inhibitor, single point]
O=C1C=CC2C3C(=O)N(c4ccccc4)C(=O)C3C1N2Cc1ccccc1 (stereo not drawn) 7.52 µM [inhibitor, full curve, poor fit]
C=CCOc1ccccc1CN(C(=O)CCl)c1ccc2c(c1)OCO2 39.8 µM [inhibitor, single point]
CCN1CCN(Cc2ccc(NC(=O)c3cc(NC(=O)c4cc(C)on4)cc(OC)c3)cc2C(F)(F)F)CC1 35.5 µM [inhibitor, single point]
COc1ccc(NC(=O)c2ccc(-c3ccccc3)cc2)cc1S(=O)(=O)N1CCOCC1 1.89 µM [inhibitor, full curve, poor fit]
COc1ccc(/C=C/C(=O)Nc2ccccc2C(=O)NCC(c2ccc(OC)cc2)N(C)C)cc1 (stereo not drawn) 39.8 µM [inhibitor, partial curve, poor fit]
CCOC(=O)[C@]12CCC=C1N(Cc1ccc(Cl)cc1Cl)C(=O)[C@H](CC(=O)NCc1ccc(C)o1)C2 20 µM [inhibitor, single point]
CC[C@]12c3[nH]c4ccc(Cl)cc4c3CCN1C(=O)[C@@H](CC(=O)NC/C=C(\C)CCC=C(C)C)C[C@@H]2C(=O)N1CCN(C(=O)C2CC2)CC1 31.6 µM [inhibitor, single point]
COc1ccc(CCNCc2c(-c3ccccc3)n(C)c3ccccc23)cc1 10 µM [inhibitor, partial curve, poor fit]
Cc1ccc(C(C)C)c(OCC(=O)Nc2cccc(-c3nc4ncccc4o3)c2)c1 25.1 µM [inhibitor, single point]

Potency, active:
COc1ccc(C(=O)Nc2nc(-c3nnn(-c4ccc(F)cc4F)c3C)ns2)cc1 11.2 µM
C=CS(=O)(=O)N(Cc1ccccc1Br)[C@H](CO)Cc1ccccc1 15.8 µM
Cc1c(CN(C)C(=O)c2cc(-c3ccccc3)nc3ccc(Br)cc23)cnn1C 22.4 µM
Cc1cc(C(=O)CN2C(=O)c3ccccc3S2(=O)=O)c(C)n1-c1ccccc1 4.47 µM
Cc1ccccc1CNC(=O)C1CCCN(c2nnc(C)c3c(C)n(-c4ccccc4)nc23)C1 (stereo not drawn) 20 µM
CC(=O)Nc1ccc(Nc2c3ccccc3nc3ccccc23)cc1 2.51 µM
O=[N+]([O-])c1ccc(O)c(/C=N/Nc2ccccn2)c1 2.82 µM
CC(C)(C)OC(=O)COc1cc(OCC(=O)OC(C)(C)C)c2c(=O)cc(-c3ccccc3)oc2c1 20 µM
Cc1cc(NC(=O)CSc2nc3c(sc4ccccc43)c(=O)n2CCCN2CCOCC2)n[nH]1 1.41 µM

Potency, inactive:
CCCCn1c(CNC(=O)C23CC4CC(CC(C4)C2)C3)nnc1SC(C)CC (stereo not drawn)
O=C1CN(C(=O)c2ccc(S(=O)(=O)N3CCCC3)cc2)C(c2ccccc2)c2cc(Cl)ccc2N1 (stereo not drawn)
CCCCNC(=O)N1CCN(Cc2cccc(F)c2)CC1
Cc1cccc(Nc2ccc(S(=O)(=O)N3CCOCC3)cc2[N+](=O)[O-])c1
Cc1csc2nc(-c3ccc(NS(=O)(=O)c4cccc(F)c4)cc3)cn12
O=C(Cn1nc(-c2nn(CC(=O)c3ccccc3)c3[n+]2CCCCC3)[n+]2c1CCCCC2)c1ccccc1
CN(c1ccccc1)S(=O)(=O)c1ccc(C(=O)Nc2nccs2)cc1
CC(C)c1ccc(S(=O)(=O)c2cn(CC(=O)Nc3ccc(F)cc3)c3ccccc3c2=O)cc1
CCC(Oc1ccccc1)C(=O)Nc1cc(Cl)ccc1-n1cncn1 (stereo not drawn)
COc1ccc(NC(=O)Nc2ccc(F)cc2F)c(C)c1
COc1ccc(NC(=O)/C(C#N)=C/c2ccc(-c3ccc(Cl)c(C(=O)O)c3)o2)cc1
CN1CCN(NC(=S)NC(C)(C)CC(C)(C)C)CC1
